{"source": "the supplement of paper PMC8728848", "binders": {"B1": {"name": "Mindin (Homo sapiens), Q9BUD6 (protein)", "chain": "MENPSPAAALGKALCALLLATLGAAGQPLGGESICSARALAKYSITFTGKWSQTAFPKQYPLFRPPAQWSSLLGAAHSSDYSMWRKNQYVSNGLRDFAERGEAWALMKEIEAAGEALQSVHEVFSAPAVPSGTGQTSAELEVQRRHSLVSFVVRIVPSPDWFVGVDSLDLCDGDRWREQAALDLYPYDAGTDSGFTFSSPNFATIPQDTVTEITSSSPSHPANSFYYPRLKALPPIARVTLVRLRQSPRAFIPPAPVLPSRDNEIVDSASVPETPLDCEVSLWSSWGLCGGHCGRLGTKSRTRYVRVQPANNGSPCPELEEEAECVPDNCV"}}, "assay_in_all_cases": "glycan array binding signal (z-score within array); higher = stronger binding", "conditions_in_all_cases": "glycan notation: IUPAC condensed, linker removed", "key": {"[1]": {"biological_target": "GlcNAc(b1-4)GlcNAc(b1-4)GlcNAc(b1-4)GlcNAc(b1-4)GlcNAc(b1-4)GlcNAc", "summary_of_the_method": "(§1)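 Negative Z-scores can be read as non-binding. The Z-score is calculated within each array and then averaged across arrays of one protein sequence at different concentrations or buffers and across linkers. Arrays, 3228 in all, were curated from the Consortium for Functional Glycomics database and kept only where the protein sequence was available.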"}, "[2]": {"biological_target": "GlcNAc(b1-4)[GlcNAc(b1-6)]GalNAc", "summary_of_the_method": "as §1"}, "[3]": {"biological_target": "GlcNAc(b1-6)Gal(b1-4)GlcNAc", "summary_of_the_method": "as §1"}, "GlcNAc(b1-6)GalNAc": {"biological_target": "GlcNAc(b1-6)GalNAc", "summary_of_the_method": "as §1"}, "Kdn(a2-3)Gal(b1-3)GlcNAc": {"biological_target": "Kdn(a2-3)Gal(b1-3)GlcNAc", "summary_of_the_method": "as §1"}, "Kdn(a2-3)Gal(b1-4)GlcNAc": {"biological_target": "Kdn(a2-3)Gal(b1-4)GlcNAc", "summary_of_the_method": "as §1"}, "[4]": {"biological_target": "Man(a1-2)Man(a1-2)Man(a1-3)Man", "summary_of_the_method": "as §1"}, "[5]": {"biological_target": "Man(a1-2)Man(a1-2)Man(a1-6)[Man(a1-3)]Man", "summary_of_the_method": "as §1"}, "Man(a1-2)Man(a1-3)Man": {"biological_target": "Man(a1-2)Man(a1-3)Man", "summary_of_the_method": "as §1"}, "[6]": {"biological_target": "Man(a1-2)Man(a1-3)[Man(a1-2)Man(a1-6)]Man", "summary_of_the_method": "as §1"}, "[7]": {"biological_target": "Man(a1-2)Man(a1-3)[Man(a1-2)Man(a1-6)]Man(a1-6)[Man(a1-2)Man(a1-2)Man(a1-3)]Man(b1-4)GlcNAc(b1-4)GlcNAc", "summary_of_the_method": "as §1"}, "[8]": {"biological_target": "Man(a1-2)Man(a1-3)[Man(a1-6)]Man(a1-6)[Man(a1-2)Man(a1-3)]Man(b1-4)GlcNAc(b1-4)GlcNAc", "summary_of_the_method": "as §1"}, "[9]": {"biological_target": "Man(a1-2)Man(a1-6)[Man(a1-3)]Man(a1-6)[Man(a1-2)Man(a1-2)Man(a1-3)]Man(b1-4)GlcNAc(b1-4)GlcNAc", "summary_of_the_method": "as §1"}, "Man(a1-3)[Man(a1-6)]Man": {"biological_target": "Man(a1-3)[Man(a1-6)]Man", "summary_of_the_method": "as §1"}, "[10]": {"biological_target": "Man(a1-3)[Man(a1-6)]Man(a1-6)[Man(a1-2)Man(a1-3)]Man(b1-4)GlcNAc(b1-4)GlcNAc", "summary_of_the_method": "as §1"}, "[11]": {"biological_target": "Man(a1-3)[Man(a1-6)]Man(a1-6)[Man(a1-3)]Man(b1-4)GlcNAc(b1-4)GlcNAc", "summary_of_the_method": "as §1"}, "[12]": {"biological_target": "Man(a1-3)[Man(a1-6)]Man(b1-4)GlcNAc(b1-4)GlcNAc", "summary_of_the_method": "as §1"}, "Man(b1-4)GlcNAc": {"biological_target": "Man(b1-4)GlcNAc", "summary_of_the_method": "as §1"}, "Neu5Ac(a2-3)Gal": {"biological_target": "Neu5Ac(a2-3)Gal", "summary_of_the_method": "as §1"}, "[13]": {"biological_target": "Neu5Ac(a2-3)Gal(b1-3)GalNAc", "summary_of_the_method": "as §1"}, "[14]": {"biological_target": "Neu5Ac(a2-3)Gal(b1-3)GalNAc(b1-3)Gal(a1-4)Gal(b1-4)Glc", "summary_of_the_method": "as §1"}, "[15]": {"biological_target": "Neu5Ac(a2-3)Gal(b1-3)GalNAc(b1-3)Gal(b1-4)GlcNAc", "summary_of_the_method": "as §1"}, "[16]": {"biological_target": "Neu5Ac(a2-3)Gal(b1-3)GalNAc(b1-4)[Neu5Ac(a2-3)]Gal(b1-4)Glc", "summary_of_the_method": "as §1"}, "[17]": {"biological_target": "Neu5Ac(a2-3)Gal(b1-3)GalNAc6S", "summary_of_the_method": "as §1"}, "[18]": {"biological_target": "Neu5Ac(a2-3)Gal(b1-3)GlcNAc", "summary_of_the_method": "as §1"}, "[19]": {"biological_target": "Neu5Ac(a2-3)Gal(b1-3)GlcNAc(b1-3)Gal(b1-3)GlcNAc", "summary_of_the_method": "as §1"}, "[20]": {"biological_target": "Neu5Ac(a2-3)Gal(b1-3)GlcNAc6S", "summary_of_the_method": "as §1"}, "[21]": {"biological_target": "Neu5Ac(a2-3)Gal(b1-3)[Fuc(a1-4)]GlcNAc", "summary_of_the_method": "as §1"}, "[22]": {"biological_target": "Neu5Ac(a2-3)Gal(b1-3)[Fuc(a1-4)]GlcNAc(b1-3)Gal(b1-4)[Fuc(a1-3)]GlcNAc", "summary_of_the_method": "as §1"}, "[23]": {"biological_target": "Neu5Ac(a2-3)Gal(b1-3)[Neu5Ac(a2-3)Gal(b1-4)]GlcNAc", "summary_of_the_method": "as §1"}, "[24]": {"biological_target": "Neu5Ac(a2-3)Gal(b1-3)[Neu5Ac(a2-6)]GalNAc", "summary_of_the_method": "as §1"}, "Neu5Ac(a2-3)Gal(b1-4)Glc": {"biological_target": "Neu5Ac(a2-3)Gal(b1-4)Glc", "summary_of_the_method": "as §1"}, "[25]": {"biological_target": "Neu5Ac(a2-3)Gal(b1-4)GlcNAc", "summary_of_the_method": "as §1"}, "[26]": {"biological_target": "Neu5Ac(a2-3)Gal(b1-4)GlcNAc(b1-2)Man(a1-3)[Neu5Ac(a2-3)Gal(b1-4)GlcNAc(b1-2)Man(a1-6)]Man(b1-4)GlcNAc(b1-4)GlcNAc", "summary_of_the_method": "as §1"}, "[27]": {"biological_target": "Neu5Ac(a2-3)Gal(b1-4)GlcNAc(b1-3)Gal(b1-3)GlcNAc", "summary_of_the_method": "as §1"}, "[28]": {"biological_target": "Neu5Ac(a2-3)Gal(b1-4)GlcNAc(b1-3)Gal(b1-4)GlcNAc", "summary_of_the_method": "as §1"}, "[29]": {"biological_target": "Neu5Ac(a2-3)Gal(b1-4)GlcNAc(b1-3)Gal(b1-4)GlcNAc(b1-3)Gal(b1-4)GlcNAc", "summary_of_the_method": "as §1"}}, "note": "The other results are listed elsewhere or left out."}
{"binder": "B1", "values": [{"measurement": "glycan array binding signal (z-score)", "setting": "[1]", "result": -0.209}, {"measurement": "glycan array binding signal (z-score)", "setting": "[2]", "result": -0.326}, {"measurement": "glycan array binding signal (z-score)", "setting": "[3]", "result": 0.021}, {"measurement": "glycan array binding signal (z-score)", "setting": "GlcNAc(b1-6)GalNAc", "result": -0.292}, {"measurement": "glycan array binding signal (z-score)", "setting": "Kdn(a2-3)Gal(b1-3)GlcNAc", "result": -0.342}, {"measurement": "glycan array binding signal (z-score)", "setting": "Kdn(a2-3)Gal(b1-4)GlcNAc", "result": -0.327}, {"measurement": "glycan array binding signal (z-score)", "setting": "[4]", "result": -0.085}, {"measurement": "glycan array binding signal (z-score)", "setting": "[5]", "result": -0.306}, {"measurement": "glycan array binding signal (z-score)", "setting": "Man(a1-2)Man(a1-3)Man", "result": -0.303}, {"measurement": "glycan array binding signal (z-score)", "setting": "[6]", "result": -0.292}, {"measurement": "glycan array binding signal (z-score)", "setting": "[7]", "result": -0.278}, {"measurement": "glycan array binding signal (z-score)", "setting": "[8]", "result": -0.225}, {"measurement": "glycan array binding signal (z-score)", "setting": "[9]", "result": -0.299}, {"measurement": "glycan array binding signal (z-score)", "setting": "Man(a1-3)[Man(a1-6)]Man", "result": -0.263}, {"measurement": "glycan array binding signal (z-score)", "setting": "[10]", "result": -0.066}, {"measurement": "glycan array binding signal (z-score)", "setting": "[11]", "result": -0.319}, {"measurement": "glycan array binding signal (z-score)", "setting": "[12]", "result": -0.201}, {"measurement": "glycan array binding signal (z-score)", "setting": "Man(b1-4)GlcNAc", "result": -0.32}, {"measurement": "glycan array binding signal (z-score)", "setting": "Neu5Ac(a2-3)Gal", "result": -0.347}, {"measurement": "glycan array binding signal (z-score)", "setting": "[13]", "result": -0.265}, {"measurement": "glycan array binding signal (z-score)", "setting": "[14]", "result": -0.246}, {"measurement": "glycan array binding signal (z-score)", "setting": "[15]", "result": -0.364}, {"measurement": "glycan array binding signal (z-score)", "setting": "[16]", "result": -0.327}, {"measurement": "glycan array binding signal (z-score)", "setting": "[17]", "result": -0.268}, {"measurement": "glycan array binding signal (z-score)", "setting": "[18]", "result": -0.335}, {"measurement": "glycan array binding signal (z-score)", "setting": "[19]", "result": -0.35}, {"measurement": "glycan array binding signal (z-score)", "setting": "[20]", "result": -0.233}, {"measurement": "glycan array binding signal (z-score)", "setting": "[21]", "result": -0.359}, {"measurement": "glycan array binding signal (z-score)", "setting": "[22]", "result": 0.188}, {"measurement": "glycan array binding signal (z-score)", "setting": "[23]", "result": -0.29}, {"measurement": "glycan array binding signal (z-score)", "setting": "[24]", "result": -0.339}, {"measurement": "glycan array binding signal (z-score)", "setting": "Neu5Ac(a2-3)Gal(b1-4)Glc", "result": -0.304}, {"measurement": "glycan array binding signal (z-score)", "setting": "[25]", "result": -0.349}, {"measurement": "glycan array binding signal (z-score)", "setting": "[26]", "result": 0.07}, {"measurement": "glycan array binding signal (z-score)", "setting": "[27]", "result": -0.193}, {"measurement": "glycan array binding signal (z-score)", "setting": "[28]", "result": -0.323}, {"measurement": "glycan array binding signal (z-score)", "setting": "[29]", "result": -0.321}]}
